Results taken from the supplement of paper PMC3334620.
The full ranking holds about 33,000 sequences; the median of “E-score (-0.5 to 0.5)” is about -0.012, and the highest 2% start at about 0.29. Some of the results follow.

These sequences were tested against T1, Ybr033w (UniProt P38073) (assay: PBM E-score (8-mer binding enrichment) (E-score (-0.5 to 0.5)); higher = stronger / more preferred TF binding; most listed sequences are background and not binding sites). Settings: protein concentration: 200 nM; construct: GST-full length.
T1 sequence: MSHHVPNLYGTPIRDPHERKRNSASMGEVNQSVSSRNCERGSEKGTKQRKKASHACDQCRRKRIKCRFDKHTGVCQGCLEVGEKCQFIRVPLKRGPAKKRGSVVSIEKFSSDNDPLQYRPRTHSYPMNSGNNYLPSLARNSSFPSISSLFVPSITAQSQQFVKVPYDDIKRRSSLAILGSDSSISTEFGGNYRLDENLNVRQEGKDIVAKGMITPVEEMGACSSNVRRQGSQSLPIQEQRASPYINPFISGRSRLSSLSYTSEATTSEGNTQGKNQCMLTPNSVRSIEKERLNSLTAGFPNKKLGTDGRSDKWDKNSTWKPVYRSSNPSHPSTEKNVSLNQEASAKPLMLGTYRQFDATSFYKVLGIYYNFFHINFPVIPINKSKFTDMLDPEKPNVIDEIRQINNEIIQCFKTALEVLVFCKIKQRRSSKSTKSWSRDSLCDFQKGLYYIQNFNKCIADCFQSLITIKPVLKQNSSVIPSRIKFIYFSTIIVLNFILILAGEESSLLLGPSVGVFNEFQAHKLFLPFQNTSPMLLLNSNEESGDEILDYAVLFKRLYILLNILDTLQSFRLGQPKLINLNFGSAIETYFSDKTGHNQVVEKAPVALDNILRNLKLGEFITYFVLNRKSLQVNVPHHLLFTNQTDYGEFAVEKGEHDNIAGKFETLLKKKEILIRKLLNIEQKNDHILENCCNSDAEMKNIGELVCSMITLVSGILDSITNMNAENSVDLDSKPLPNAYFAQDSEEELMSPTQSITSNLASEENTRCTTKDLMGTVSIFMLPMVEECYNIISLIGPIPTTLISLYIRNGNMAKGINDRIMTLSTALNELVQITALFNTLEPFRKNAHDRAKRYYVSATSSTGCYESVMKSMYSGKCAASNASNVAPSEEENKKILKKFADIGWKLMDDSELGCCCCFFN
Method in brief: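 Universal all-10-mer Agilent arrays, fresh or stripped once, were converted to double-stranded form by primer extension. GST-tagged yeast transcription factors from PURExpress in vitro transcription/translation, full-length or DNA-binding domain only, were applied at about 100-200 nM and detected with fluorescent anti-GST. After masliner normalisation, the Universal PBM Analysis Suite scored each ungapped eight-base word together with its reverse complement by E-score.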

| Sequence | PBM E-score |
| --- | --- |
| GCGCGGAC | -0.126 |
| CGTTTTAA | 0.0098 |
| ACCAAAGG | -0.149 |
| ATCGAACA | -0.0196 |
| CTAACTCA | 0.00653 |
| CTAGATTC | 0.0674 |
| GCGTTCGA | -0.0586 |
| ACATTTTA | 0.259 |
| CGGATGGC | -0.188 |
| TTCATAAA | 0.0849 |
| GGCGACGA | -0.169 |
| CGGGCTTC | -0.162 |
| ACAGGAAC | 0.152 |
| AAATGCGA | 0.185 |
| ACGTGGCA | -0.257 |
| ACCCACGG | -0.332 |
| AGGTTGTA | 0.132 |
| CCGCCTCG | -0.0432 |
| CAATTGTC | 0.0927 |
| ACACTACG | -0.0109 |
| ATCTCGGA | -0.047 |
| GCATTGTA | 0.103 |
| GACTTATA | 0.293 |
| AGTGTCGA | -0.093 |
| AATGTCGA | 0.197 |

| Sequence | PBM E-score |
| --- | --- |
| GGAAGAAC | 0.461 |
| AGGAGTCA | 0.0741 |
| CGACGACA | 0.0999 |
| CGTTCGAG | -0.0445 |
| ACCACGGC | -0.109 |
| ACGACTAC | -0.141 |
| GCTGTGAC | -0.157 |
| ATCCTCCA | 0.0257 |
| TCTGTTCA | 0.0424 |
| CTATAGGA | -0.0273 |
| ACACCCCA | -0.16 |
| CAACAGTG | -0.0169 |
| CTACTACA | 0.215 |
| GAATTATA | 0.307 |
| CGATTGAG | -0.0284 |
| ACTATGAG | 0.024 |
| GAAATTTA | 0.231 |
| ATAAAAGG | -0.0365 |
| GGAAAGAC | -0.159 |
| TCTATTAA | 0.292 |
| AGTCCAAG | -0.0526 |
| GCAATACC | 0.00078 |
| GCGACCTA | -0.0108 |
| AGGACAAC | 0.0906 |
| GCTGGTGA | 0.0692 |

| Sequence | PBM E-score |
| --- | --- |
| CCTAAGCG | -0.164 |
| CCGTGCCA | -0.269 |
| GGCAAAAC | -0.0116 |
| CACGAAAC | 0.106 |
| CACAGAAG | -0.0363 |
| ACGATATA | 0.0404 |
| CCTCCAAC | -0.0879 |
| TCATCCGA | 0.148 |
| CCGACGCG | -0.0554 |
| TAGCAGCA | -0.0377 |
| TAATGGGA | -0.0339 |
| ATATAAGC | -0.0175 |
| ACATGCTC | -0.0212 |
| CAACAGCG | -0.126 |
| CGGAGGAG | -0.268 |
| ACGCTCGG | 0.0921 |
| AACGCCCT | -0.131 |
| CTTAAGTC | -0.00164 |
| GAGGGACC | -0.361 |
| CAAATCGC | -0.165 |
| AAAACGAT | 0.162 |
| CAAGGAGA | -0.0772 |
| ATTATACA | 0.222 |
| AGCGACAT | -0.0513 |
| CCGAACCG | -0.217 |

| Sequence | PBM E-score |
| --- | --- |
| GCCGGCAC | -0.121 |
| GGATGCAC | -0.211 |
| ATTCGAAA | 0.12 |
| AGTTGGTC | -0.066 |
| GGGGCCAC | -0.341 |
| ATGACAGA | 0.0497 |
| ATTACAGG | 0.326 |
| ACATATAA | 0.246 |
| AACTACGT | 0.0877 |
| GTTAGCCA | -0.0557 |
| CGCAATAA | 0.223 |
| CATAACGA | 0.0759 |
| TAGTGCAA | 0.197 |
| CTTGCGGA | -0.067 |
| ATGTGTGC | -0.11 |
| ACGTAACA | 0.0668 |
| ATCTAAGA | 0.132 |
| ACGGCCGT | -0.351 |
| AAGGGAAC | 0.0259 |
| GGACCGAA | 0.061 |
| CTGGTAGC | -0.129 |
| CATAGTCG | 0.0567 |
| ACCGGACG | -0.163 |
| ACCCTCCG | -0.283 |
| AAGAATGC | 0.142 |

| Sequence | PBM E-score |
| --- | --- |
| CGTATTGA | 0.0369 |
| AGCGCTTG | -0.103 |
| GTGGTAAC | 0.0507 |
| ATATGGAA | 0.0484 |
| CGTCAAAA | 0.108 |
| AGTTCAGC | -0.229 |
| ATGAAGTA | 0.15 |
| TAAAAATA | 0.285 |
| AATCTCGT | 0.0658 |
| CCTCACAA | 0.0297 |
| GAATATAC | 0.141 |
| GTCGTCAA | -0.115 |
| CGATTGGA | 0.0255 |
| ACTATAAA | 0.226 |
| GGGCACTA | -0.18 |
| ATATCTTG | 0.288 |
| AATCGACG | 0.0656 |
| CAAGGACA | -0.126 |
| AACAACAG | 0.189 |
| ACAGAAAG | -0.0583 |
| AGAGTGTC | 0.214 |
| CTCAAAGA | 0.0377 |
| GTATAGTA | 0.173 |
| CAGGTCCC | -0.232 |
| AGCACATG | 0.0824 |

| Sequence | PBM E-score |
| --- | --- |
| ATATGCAT | 0.02 |
| ACCTTTAC | -0.0424 |
| GGCGGTGA | -0.163 |
| GCAGTCGA | -0.0467 |
| ACGGCTAA | 0.0465 |
| TATCAACA | 0.196 |
| CGCGCCCA | -0.154 |
| TAACTTAA | 0.283 |
| GAGACAAA | -0.0572 |
| CTTAATAA | 0.182 |
| AACAGTGC | 0.0632 |
| CACGAGTG | -0.286 |
| GAAATAAC | 0.159 |
| CTATGGAG | -0.0955 |
| TATTCTGA | 0.0151 |
| AAGTTTAC | 0.154 |
| CTAGACGA | -0.0898 |
| ATAGTTTA | 0.107 |
| AGTACGGC | -0.0831 |
| GCTTGAGA | -0.123 |
| AGACTGGG | -0.174 |
| ACACCGGG | -0.143 |
| GAATTGCA | 0.039 |
| CCAGCTCC | -0.229 |
| ATACCTAC | 0.05 |

| Sequence | PBM E-score |
| --- | --- |
| GATGACCC | -0.208 |
| ACTCGAAC | -0.0528 |
| AGACTGCG | -0.23 |
| CTTCACTA | 0.0917 |
| TAGTGCCA | -0.132 |
| ACCGAGGA | -0.0867 |
| ACGCTAGA | -0.102 |
| AGTATGTA | 0.0368 |
| CCATACGA | 0.0671 |
| ACAATCTG | 0.0774 |
| ATCAAGTA | 0.227 |
| TAGTAAAA | 0.247 |
| AAGCAGTC | -0.0621 |
| TATCCTAA | 0.198 |
| CGACTGTA | -0.311 |
| ACACCGGC | -0.144 |
| AAAGACTT | 0.0525 |
| ACTGAGCT | 0.0554 |
| CTGAGATA | 0.0588 |
| GTCAATGA | -0.0551 |
| AAAATGCG | 0.139 |
| CAAGGCGC | -0.148 |
